In PubChem BioAssay AID624418 (National Center for Advancing Translational Sciences (NCATS), 2012):
Hit rate of the full screen: of about 410,000 compounds, about 530 (0.13%) were called active. The inconclusive results got no clear call from the source; some entries with a clear call stand among them for comparison. The call rests on the fitted dose curve; in most records, active means well fitted inhibition curve with a large enough effect; inconclusive means small, poorly fitted or top-dose-only effect, or another doubt; inactive means no such curve, though single readings can be large or run the other way. Where the call is inconclusive, the potency comes from a doubtful curve fit.
Potency means the concentration at half of the fitted maximal effect.

Assay: qHTS of GLP-1 Receptor Inverse Agonists: Cytotox Screen
Details: HEK293 cAMP-luciferase reporter cells, luminescence, 24 h; series mostly up to 38.3 µM
Outline: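 To flag toxic compounds, the library was rerun on cells for 24 hr at 37 deg C and 5% CO2. Viability-linked luminescence was captured 12 min after adding luciferase detection reagent.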
With CC(C)(C)c1ccc(-c2nc(NCc3cccnc3)c3ccccc3n2)cc1 the Potency was inconclusive: 15.8 µM [inhibitor, partial curve, poor fit]. With COc1ccccc1N1CC(O)=C(c2nc3ccccc3s2)C1=N the Potency was inconclusive: 14.1 µM [inhibitor, partial curve, poor fit]. For COc1ccc(-c2nc3ccccc3o2)cc1NC(=O)CSc1ccc(Cl)cc1, the Potency was “inactive”. In the case of CCOC(=O)c1sc(=S)[nH]c1C, the Potency is reported as “inactive”. In the case of COc1cc(-c2cc(C(=O)NCc3ccco3)c3ccccc3n2)cc(OC)c1OC, the Potency is reported as inconclusive: 28.2 µM [inhibitor, single point]. In the case of Cc1cccc(NC(=O)c2nc[nH]c2C(=O)N[C@@H](C)c2ccccc2)c1, the Potency is reported as inconclusive: 28.2 µM [inhibitor, single point]. For COC(=O)Cc1ccc(NC(=S)NCCSc2ccc(C)cc2)cc1, the Potency was inconclusive: 12.6 µM [inhibitor, single point]. With O=C(NC(CC(=O)N1CCN(c2ccc([N+](=O)[O-])cc2)CC1)c1ccccc1)c1ccccc1Cl (stereo not drawn) the Potency was inconclusive: 20 µM [inhibitor, single point]. For CC(=O)c1ccc(OCCCC(=O)Nc2ccc(Cl)c(S(=O)(=O)N3CCOCC3)c2)cc1, the Potency was “inactive”. For CN(C)S(=O)(=O)c1cccc(NC(=O)c2ccncc2)c1, the Potency was inconclusive: 14.1 µM [inhibitor, single point]. With CCOC(=O)C1(Cc2cccc(OC)c2)CCN(Cc2cccc(O)c2)CC1 the Potency was “inactive”. With N#C/C(=C\c1cc(O)c(O)c(O)c1)C(N)=O the Potency was inconclusive: 22.4 µM [inhibitor, single point]. With c1cc2c3c(cccc3c1)NC1(CCCCC1)N2 the Potency was inconclusive: 8.91 µM [inhibitor, single point]. For CCN1/C(=C2\C(=O)N(C)C(=S)N2C)C=Cc2cc(C)ccc21, the Potency was inconclusive: 31.6 µM [inhibitor, single point]. For COc1ccc(CN(CCC(c2ccccc2)c2ccc(OC(C)C)cc2)C(=O)CCl)cc1OC (stereo not drawn), the Potency was inconclusive: 22.4 µM [inhibitor, single point]. In the case of Cc1cccc(/C(N)=N/OC(=O)c2ccc3c(c2)OCO3)c1, the Potency is reported as inconclusive: 10 µM [inhibitor, partial curve, poor fit]. For CCCN(CC(=O)NC(=O)NC1CCCCC1)CC(=O)Nc1cc(Cl)ccc1Cl, the Potency was inconclusive: 28.2 µM [inhibitor, single point]. For Cc1cc(S(=O)(=O)NCc2ccccc2)ccc1OCC(=O)NCc1ccccn1, the Potency was “inactive”. For Cc1cccc(-c2nnc3sc(-c4ccccc4C)nn23)c1, the Potency was inconclusive: 28.2 µM [inhibitor, single point]. With O=C(NNC(=O)c1cccc2ccccc12)c1ccc(Cl)cc1Cl the Potency was inconclusive: 28.2 µM [inhibitor, single point]. With COc1ccc(CNC(=O)CCN2C(=S)NC(C)(C)CC2C)cc1 (stereo not drawn) the Potency was “inactive”. With CCOC(=O)NC(=S)Nc1ccc(OC)cc1 the Potency was “inactive”. For CCc1ccc2nc(N(CCCN(C)C)C(=O)c3ccc(S(=O)(=O)N(C)C4CCCCC4)cc3)sc2c1, the Potency was inconclusive: 8.91 µM [inhibitor, partial curve]. In the case of COc1cc(NC(=O)COc2ccc(-n3cnnn3)cc2)c(OC)cc1Cl, the Potency is reported as inconclusive: 22.4 µM [inhibitor, single point]. For Cc1ccc(C(=O)NC(=S)Nc2ccc(CN3CCCCC3)cc2)c(C)c1, the Potency was inconclusive: 31.6 µM [inhibitor, single point]. With Brc1cc2ccccc2[n+](Cc2ccccc2)c1 the Potency was inconclusive: 31.6 µM [inhibitor, single point]. In the case of Cn1c(=O)n(Cc2ccccc2)c(=O)c2c1nc1n2CCCN1Cc1ccccc1, the Potency is reported as “inactive”. For O=C(Nc1ccc(F)cc1)c1nn(-c2ccccc2)c(=O)cc1Cl, the Potency was inconclusive: 14.1 µM [inhibitor, single point]. With O=C1N(c2ccc(Cl)c(Cl)c2)CN(Cc2ccccc2)CN1n1cnnc1 the Potency was “inactive”. With CCc1nc(Nc2ccncc2)c2oc3ccccc3c2n1 the Potency was inconclusive: 11.2 µM [inhibitor, partial curve, poor fit]. For COc1ccc(NC(=O)C2=CC(c3ccc(OC)c(OC)c3)=NS(=O)(=O)N2C)cc1, the Potency was inconclusive: 12.6 µM [inhibitor, partial curve, poor fit]. For CC(Cc1ccccc1)C(=O)N(C)Cc1cccnc1 (stereo not drawn), the Potency was inconclusive: 14.1 µM [inhibitor, single point]. With Cc1ccc(C(=O)c2cc([N+](=O)[O-])ccc2N2CCCCC2)c(C)c1 the Potency was inconclusive: 0.282 µM [inhibitor, full curve, poor fit]. With O=C(Nc1nnc(S(=O)(=O)N2CCN(c3ccc(F)cc3)CC2)s1)c1ccc(Cl)cc1 the Potency was “inactive”. For CCCCOc1ccc(C2OC34CCCCC3C(C#N)(C#N)C2(C#N)C(=N)O4)cc1 (stereo not drawn), the Potency was “inactive”. In the case of O=C(c1ccc(NS(=O)(=O)c2ccccc2)cc1)N1CCCC1, the Potency is reported as “inactive”. With COc1cccc(/C=C/C(=O)c2ccc(NC3=NCCCS3)cc2)c1 the Potency was inconclusive: 7.08 µM [inhibitor, partial curve, poor fit]. With Cn1cccc1/C=C1\SC(=Nc2ccccc2)NC1=O the Potency was inconclusive: 5.01 µM [inhibitor, full curve]. For COc1ccc(/C=N/Nc2nc3ccccc3c(=O)n2-c2ccccc2)cc1OC, the Potency was inconclusive: 28.2 µM [inhibitor, single point]. For Cc1cc(-c2n[nH]c(=S)n2/N=C/C=C/c2ccco2)n[nH]1, the Potency was inconclusive: 0.501 µM [inhibitor, full curve, poor fit]. In the case of CCc1ccc(NC(=O)CSc2nc3ccccc3nc2Cc2ccccc2OC)cc1, the Potency is reported as inconclusive: 0.501 µM [inhibitor, full curve, poor fit]. For COc1ccc(C(=O)Nc2nc3ccccc3[nH]2)cc1, the Potency was inconclusive: 10 µM [inhibitor, partial curve, poor fit]. With CCOC(=O)C1=C(C)NC(=O)NC1c1c(OCC(=O)N2CCCCC2)ccc2ccccc12 (stereo not drawn) the Potency was inconclusive: 35.5 µM [inhibitor, partial curve, poor fit].
